In all, about 43,000 compounds went through this assay and about 200 (0.47%) were called active. About 12% were inconclusive and are not listed. The call rests on the fitted dose curve; in most records, active means well fitted cell-killing curve with a large enough effect; inconclusive means small, poorly fitted or top-dose-only effect, or effect the other way; inactive means flat fitted curve, though single readings scatter. Some of the results follow.
assay: Cell viability qHTS assay in S16 Pmp22-F2sN cells; conditions: S16 Pmp22-F2sN Schwann cells viability, CellTiter-Glo, 24 h; series mostly up to 57.5 µM; activity change, negative = cytotoxicity: at the top concentration; further: nearly all actives have a fitted effect of over 65% in size
Outline: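 Viability was measured by CellTiter-Glo luminescence (15 min, room temperature). This followed 24 h at 37 °C of compound exposure (23 nL pin transfer) in S16 Pmp22-F2sN Schwann cells, 500-1,000 per well.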
On the % scale 0 is the no-effect control and ±100 the full control effect.

| Structure (SMILES) | activity change, negative = cytotoxicity |
| --- | --- |
| Cc1ccc(C(=O)NCc2nnnn2-c2ccc(C)c(C)c2)cc1 | inactive: -1.88% |
| Cc1ccc(N2C(=O)c3n[nH]c(C)c3C2c2ccc(C(C)C)cc2)cc1 (configuration not stated) | inactive: 0.759% |
| COc1cccc(C(=O)Nc2ccccc2-c2nc(-c3ccc(C)cc3)no2)c1 | inactive: 4.53% |
| CCOC(=O)c1c(S(=O)(=O)N2CCN(c3ccccc3OC)CC2)c(C)n(C)c1C | inactive: -10.8% |
| CCc1ccccc1NC(=O)CC(C)n1nc(C)cc1C (configuration not stated) | inactive: 1.39% |
| O=c1c2cc3c(cc2n(Cc2cccc(F)c2)c(=O)n1Cc1nc(-c2ccccc2)no1)OCO3 | inactive: 14.8% |
| CC(=O)c1cccc(NC(=O)c2sc3nc4c(cc3c2N)CCCC4)c1 | inactive: 11.6% |
| COc1cc(OC)c(NC(=O)NCc2ccc3c(c2)CCN3C(C)=O)cc1Cl | inactive: 18.1% |
| c1ccc(N2CCN(c3ncnc4[nH]ncc34)CC2)cc1 | inactive: -0.221% |
| O=C(CC1N=C2c3ccccc3N=C(SCc3cccc(Cl)c3)N2C1=O)NC1CCCCC1 (configuration not stated) | inactive: 3.16% |
| COc1cc(OC)c(NC(=O)c2nc(-c3ccncc3)no2)cc1Cl | inactive: 1.72% |
| COc1ccc(NC(=O)CSc2nnc(-c3nnn(-c4ccc(F)cc4)c3C)o2)cc1 | inactive: 7.69% |
| CCCCCNC(=O)C1CCC(Cn2c(=O)c3sccc3n(CC(=O)N3CCCC3)c2=O)CC1 (configuration not stated) | inactive: -11.6% |
| Cc1cccc(-c2noc(-c3ccc(NC4CCCC4)c([N+](=O)[O-])c3)n2)c1 | inactive: 10.1% |
| Cc1ccc(OCC(=O)Nc2cccc(C(=O)OCc3cc(=O)n4cc(C)sc4n3)c2)cc1 | inactive: 0.531% |
| Cc1ccc(Cl)cc1-n1c(=O)cc(N2CCN(c3ccccc3)CC2)[nH]c1=O | inactive: 2.37% |
| Cc1cc2n(n1)CCCN2C(=O)Nc1ccccc1F | inactive: 2.15% |
| Cn1c(=NC(=O)c2ccc(F)cc2)sc2cc(Br)ccc21 | inactive: -3.72% |
| CCOCN(C(=O)Cn1c(C)nc2ccccc21)c1c(C)cccc1CC | inactive: -2.49% |
| Cc1ccc(C(=O)Nc2nnc(SCc3cc(=O)c4c(C)ccc(C)c4[nH]3)s2)cc1 | inactive: -10.3% |
| O=C(C1COc2ccccc2O1)N(Cc1cccnc1)c1nc2c(F)cc(F)cc2s1 (configuration not stated) | inactive: 3.69% |

| Structure (SMILES) | activity change, negative = cytotoxicity |
| --- | --- |
| O=C(Nc1ccc2nn(-c3ccc(F)cc3)nc2c1)c1cccc2c(Cl)cccc12 | inactive: -0.804% |
| COc1cccc(C(=O)N2CCC(c3nc4ccccc4s3)CC2)c1 | inactive: 7.79% |
| CCOc1ccccc1NC(=O)c1ccc2c(c1)CCCN2S(C)(=O)=O | inactive: 1.28% |
| COCCNc1cc(N2CCN(C3CCCCC3)CC2)c2noc3c2c1C(=O)c1ccccc1-3 | inactive: -8.39% |
| COC(=O)c1cccc(Nc2c(-c3cc(Br)ccc3O)nc3nc[nH]n23)c1 | inactive: -18.8% |
| Cc1cc(C)cc(OCC(=O)Nc2ccc(-c3nc4ncccc4o3)cc2C)c1 | inactive: 18.6% |
| CCc1nnc(SCc2nc(-c3ccccc3F)oc2C)c2cc3sccc3n12 | inactive: 4.93% |
| Cc1ccc(Cl)cc1N1CCN(C(=O)c2c(C)oc3ncnc(N4CCOCC4)c23)CC1 | inactive: -5.07% |
| O=C(CSc1nnc(-c2cccs2)o1)Oc1ccc(Cl)cc1 | inactive: 4.94% |
| CCCCNC(=O)C1CCCN(c2nnc(C)c3c(C)n(-c4ccc(Cl)cc4)nc23)C1 (configuration not stated) | inactive: -4.77% |
| COc1cc2c(=O)c(S(=O)(=O)c3ccc(C)cc3)cn(Cc3cccc(C)c3)c2cc1OC | inactive: -6.49% |
| CC1CN(C(=O)N2CCC(C(=O)NCCC3=CCCCC3)CC2)c2ccccc2O1 (configuration not stated) | inactive: 13% |
| CCOC(=O)C1(C)C=C(Nc2ccc(C)cc2)C(=O)N1c1ccccc1 (configuration not stated) | inactive: -0.226% |
| CC(=O)c1ccc(NC(=O)CSc2nccn2Cc2ccco2)cc1 | inactive: 4.97% |
| CSc1cccc(NC(=O)C2CCN(S(=O)(=O)c3ccc4[nH]c(=O)ccc4c3)CC2)c1 | inactive: 20.4% |
| CCCC(=O)Nc1ccc(NC(=O)c2sc3ccccc3c2Cl)cc1 | inactive: 14% |
| COc1ccc(C(=O)N2CCN(C(=O)COc3ccc(Br)cc3)CC2)cc1OC | inactive: -3.41% |
| Cc1cc2c(cc1C)C(c1cccc(OC(C)C)c1)CC(=O)N2 (configuration not stated) | inactive: 17.8% |
| CCCCN(C)CCCNC(=O)Cn1nc(CC)n2c(cc3sc(C)cc32)c1=O | inactive: 1.94% |
| COc1ccc(NC(=O)CN(c2cccc(C)c2C)S(=O)(=O)c2ccccc2)cc1OC | inactive: -1.33% |
| CCOC(=O)CSC1=Nc2ccccc2C2=NC(CCC(=O)NCc3ccccc3)C(=O)N12 (configuration not stated) | inactive: 3.02% |

| Structure (SMILES) | activity change, negative = cytotoxicity |
| --- | --- |
| Cc1ccc(CNC(=O)C(=O)NCC(c2cccs2)S(=O)(=O)c2cccs2)cc1 (configuration not stated) | inactive: 10.3% |
| CC(C)(C)OC(=O)N1CCC(c2c(C(=O)Nc3ccc4c(c3)OCO4)cnn2-c2ccc(F)cc2F)CC1 | inactive: -20.5% |
| COc1ccc(NC(=O)/C(C#N)=C/c2ccc(C)o2)cc1 | inactive: -6.84% |
| CCc1ccc2occ(CC(=O)Nc3c(C(=O)Nc4ccc(Cl)cc4)oc4ccccc34)c2c1 | inactive: 0.0301% |
| CN(C)c1ccc(NC(=O)Cn2c(SCc3ccc(F)cc3)nc3cccnc32)cc1 | inactive: 0.529% |
| Cc1ccccc1Cn1c(=O)n(CCCCC(=O)NCCc2ccccc2)c(=O)c2ccccc21 | inactive: 19.6% |
| CCc1ccc(NC(=O)CSC2=Nc3ccccc3C3=NC(CC(=O)NCc4ccc5c(c4)OCO5)C(=O)N23)cc1 (configuration not stated) | inactive: -14% |
| CCSc1nc2c([nH]c3ccccc32)c(=O)n1-c1ccc(OC)cc1 | inactive: 15.2% |
| O=C(O)CCCC(=O)N1CCc2cc(S(=O)(=O)NCc3ccccc3)ccc21 | inactive: -5.28% |
| Cc1cccc(NC(=O)CCNS(=O)(=O)c2ccc3c(c2)CCCC(=O)N3)c1C | inactive: 13.2% |
| CCOC(=O)c1[nH]c2c(c1Cc1ccccc1)C(=O)CC(c1ccc(OC)cc1)C2 (configuration not stated) | inactive: 0.654% |
| CC1CCCN(c2ncnc3c2nc2n3CCCCC2)C1 (configuration not stated) | inactive: 0.407% |
| CN(C)c1ccc(CNc2nc(-c3ccco3)nn2S(C)(=O)=O)cc1 | inactive: -10.6% |
| c1coc(-c2nc3ccccn3c2Nc2ccc3c(c2)OCCO3)c1 | inactive: -2.23% |
| CCOc1ccc(NC(=O)CCS(=O)(=O)c2ccc3nc(C)sc3c2)cc1 | inactive: -1.15% |
| COc1ccc(-n2c(SCC(=O)N3CCCc4ccccc43)nc3c([nH]c4ccccc43)c2=O)cc1 | inactive: 3.4% |
| COc1ccc(-c2cn3c(n2)sc2cc(C(=O)Nc4ccccc4F)ccc23)cc1 | inactive: 16.9% |
| Cc1ccc(Cn2c(SCc3ccc(C(=O)NCCc4ccccc4)cc3)nc3ccncc32)cc1 | inactive: -26.2% |
| CCn1cc(S(=O)(=O)c2cccc(C)c2)c(=O)c2cc(F)c(N3CCCCC3C)cc21 (configuration not stated) | inactive: 3.98% |
| COc1cc(CN2CCN(S(=O)(=O)c3ccc(NC(C)=O)cc3)CC2)cc(OC)c1OC | inactive: 1.74% |
